# Changes are numbered by the printed parent chain.
# T1: Human IL-2Rα (Table 7A) (human, UniProt P01589 22-213, limits assumed)
# T1 sequence (looked up): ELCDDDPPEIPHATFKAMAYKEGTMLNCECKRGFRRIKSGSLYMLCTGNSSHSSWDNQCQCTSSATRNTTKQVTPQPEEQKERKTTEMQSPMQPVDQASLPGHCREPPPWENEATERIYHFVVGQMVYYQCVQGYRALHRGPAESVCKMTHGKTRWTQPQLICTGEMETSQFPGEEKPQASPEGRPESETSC
# T2: human IL-2Rβγc (on DERL-7 cells, U2OS IL2RB/IL2RG cells, CD25 knockout Kit225-STAT5 cells, primary CD8+ CTLs) (human, UniProt P14784 27-551; P31785 23-369)
# T2 sequence (looked up) 1: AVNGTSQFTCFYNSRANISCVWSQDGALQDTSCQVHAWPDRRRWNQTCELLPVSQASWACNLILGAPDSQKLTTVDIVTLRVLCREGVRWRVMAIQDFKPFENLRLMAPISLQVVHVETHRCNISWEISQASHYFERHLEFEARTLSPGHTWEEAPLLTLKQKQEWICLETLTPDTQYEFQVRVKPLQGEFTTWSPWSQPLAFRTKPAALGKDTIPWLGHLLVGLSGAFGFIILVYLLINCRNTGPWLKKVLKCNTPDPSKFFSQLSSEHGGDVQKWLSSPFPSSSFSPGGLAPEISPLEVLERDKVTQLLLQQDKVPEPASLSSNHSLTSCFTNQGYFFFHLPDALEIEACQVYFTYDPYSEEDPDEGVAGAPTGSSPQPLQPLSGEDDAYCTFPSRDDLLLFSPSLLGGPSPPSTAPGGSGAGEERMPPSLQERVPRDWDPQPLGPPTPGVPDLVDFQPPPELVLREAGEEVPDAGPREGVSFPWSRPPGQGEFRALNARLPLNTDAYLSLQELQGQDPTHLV
# T2 sequence (looked up) 2: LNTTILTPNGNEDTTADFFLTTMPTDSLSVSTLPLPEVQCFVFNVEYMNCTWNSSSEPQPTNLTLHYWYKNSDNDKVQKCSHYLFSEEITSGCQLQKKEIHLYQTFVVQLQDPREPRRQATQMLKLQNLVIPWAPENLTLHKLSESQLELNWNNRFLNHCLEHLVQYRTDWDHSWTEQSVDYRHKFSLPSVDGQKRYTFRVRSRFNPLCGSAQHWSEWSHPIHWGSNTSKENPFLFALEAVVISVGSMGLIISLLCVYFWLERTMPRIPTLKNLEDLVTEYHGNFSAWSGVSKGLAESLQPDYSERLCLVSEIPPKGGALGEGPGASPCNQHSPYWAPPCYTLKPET
# T3: human IL-2Rαβγc (on Kit225-STAT5 reporter cells, NK-92 cells, primary Treg cells) (human, UniProt P01589 22-272; P14784 27-551; P31785 23-369)
# T3 sequence (looked up) 1: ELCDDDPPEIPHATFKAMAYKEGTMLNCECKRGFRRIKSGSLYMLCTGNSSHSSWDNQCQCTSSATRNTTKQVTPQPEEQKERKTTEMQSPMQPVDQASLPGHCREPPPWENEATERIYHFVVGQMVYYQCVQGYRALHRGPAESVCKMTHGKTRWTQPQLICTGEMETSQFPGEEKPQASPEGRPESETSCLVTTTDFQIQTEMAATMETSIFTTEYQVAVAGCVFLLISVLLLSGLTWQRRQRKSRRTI
# T3 sequence (looked up) 2: T2 sequence (looked up) 1
# T3 sequence (looked up) 3: T2 sequence (looked up) 2
# T4: Human IL-2Rα, Fc tag (Table 10) (human, UniProt P01589 22-213, limits assumed)
# T4 construct: also called IL-2R alpha Human Fc; not shown: Fc tag
# T4 sequence (looked up): T1 sequence (looked up)
# T5: Cynomolgus IL-2Rα, Fc tag (Table 10) (cynomolgus monkey, UniProt H6WS54 22-213)
# T5 construct: not shown: Fc tag (tag cell printed once at r10)
# T5 sequence: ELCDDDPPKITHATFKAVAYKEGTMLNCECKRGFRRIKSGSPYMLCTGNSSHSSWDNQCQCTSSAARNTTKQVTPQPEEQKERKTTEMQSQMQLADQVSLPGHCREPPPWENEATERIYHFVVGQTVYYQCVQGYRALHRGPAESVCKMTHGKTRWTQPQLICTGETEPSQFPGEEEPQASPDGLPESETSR
# T6: Rhesus IL-2Rα, Fc tag (Table 10) (rhesus monkey, UniProt Q5MNY4 22-213, limits assumed)
# T6 construct: not shown: Fc tag (tag cell printed once at r10)
# T6 sequence (looked up): T5 sequence with T126M, V146I
# B1: Ald-6HIS (ligand)
# chain: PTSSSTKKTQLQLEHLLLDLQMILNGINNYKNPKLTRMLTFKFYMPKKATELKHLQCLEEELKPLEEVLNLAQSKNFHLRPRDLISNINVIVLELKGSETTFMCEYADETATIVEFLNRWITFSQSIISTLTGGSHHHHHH
# notes: also called aldesleukin with carboxyl-terminus HIS6-tag linked via a Gly-Gly-Ser linker
# B2: Aldesleukin (DesA1_IL-2_C124S) (ligand)
# chain: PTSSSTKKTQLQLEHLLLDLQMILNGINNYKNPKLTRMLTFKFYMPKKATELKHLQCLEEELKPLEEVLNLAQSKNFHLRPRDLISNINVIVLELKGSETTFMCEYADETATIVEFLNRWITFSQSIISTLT
# Assays:
# Human IL-2Rα (Table 7A) = molecular target: T1, Human IL-2Rα (Table 7A); assay: SPR (Biacore T200)
# [1] = molecular target: T2, human IL-2Rβγc (on DERL-7 cells, U2OS …); assay: cell-based or functional assay
# [2] = molecular target: T3, human IL-2Rαβγc (on Kit225-STAT5 …); assay: cell-based or functional assay
# [3] = molecular target: T2, human IL-2Rβγc (on DERL-7 cells, U2OS …); assay: cell-based or functional assay; remark: listed apart in the source
# [4] = molecular target: T4, Human IL-2Rα, Fc tag (Table 10); assay: SPR (Biacore T200), receptor captured on anti-hu Fc surface
# Experimental: (§1) A Surface Plasmon Resonance (SPR) assay on a Biacore T200 (GE Healthcare) instrument was used to determine the monovalent affinities of pegylated aldesleukin variants against polyhistidine-tagged or Fc-tagged IL-2 Receptors. Biacore T200 Evaluation Software was used to fit each titration series to a 1:1 binding model or steady state affinity. The association (kₒₙ, M⁻¹ s⁻¹) and dissociation (koff, s⁻¹) rate constants were determined for each set of titrations and used to calculate the dissociation constant, KD=koff/kₒₙ, of each sample against each receptor. koff/kₒₙ values are not reported herein.
# (§2) To measure the affinity of CON1 and aldesleukin for IL-2R subunits, receptors were captured on either an anti-histidine or anti-hu Fc antibody surface. […] CON1 has a six-fold lower affinity for Human and Cynomolgus/Rhesus IL-2-Rβ than aldesleukin.
# [5] = molecular target: T5, Cynomolgus IL-2Rα, Fc tag (Table 10); assay: as above
# Experimental: as §1, §2
# [6] = molecular target: T6, Rhesus IL-2Rα, Fc tag (Table 10); assay: as above
# Experimental: as §1, §2
Binder,koff (Human IL-2Rα (Table 7A)) [s⁻¹],kon (Human IL-2Rα (Table 7A)) [M⁻¹ s⁻¹],DERL7 EC50 Fold Change [1] [fold],DERL7 cell assay EC50 [1] [nM],"pSTAT5 Treg Fold-change from wt, donor #1 [2] [fold]","pSTAT5 Treg Fold-change from wt, donor #2 [2] [fold]","pSTAT5 Treg cells EC50, donor #1 [2] [nM]","pSTAT5 Treg cells EC50, donor #2 [2] [nM]","pSTAT5 CTLs EC50, donor #1 [3] [nM]","pSTAT5 CTLs EC50, donor #2 [3] [nM]","pSTAT5 CTLs Fold-change from wt, donor #1 [3] [fold]","pSTAT5 CTLs Fold-change from wt, donor #2 [3] [fold]",KD/KD (human) [4] [ratio],Kd [4] [nM],KD/KD (human) [5] [ratio],Kd [5] [nM],KD/KD (human) [6] [ratio],Kd [6] [nM]
B1,0.18,1.2e+06,1,0.018,,,,,,,,,,,,,,
B2,,,,,1,1,0.003,0.003,2.83,0.97,1,1,1,18,0.6,12,0.7,13
